Assay results from patent US20160256527A1 (ONCOMED PHARMACEUTICALS, published 2016).

Target: T1, full-length human GITR (cell surface expression) (human, UniProt Q9Y5U5 26-241)
T1 construct: whole, on cells; also called hGITR
T1 sequence (looked up): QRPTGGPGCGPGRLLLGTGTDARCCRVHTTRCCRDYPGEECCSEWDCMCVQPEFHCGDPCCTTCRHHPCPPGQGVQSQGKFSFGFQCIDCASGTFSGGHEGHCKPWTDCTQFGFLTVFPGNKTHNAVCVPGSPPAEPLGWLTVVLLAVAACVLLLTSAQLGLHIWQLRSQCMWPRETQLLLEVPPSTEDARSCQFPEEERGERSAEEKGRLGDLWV
Experiment: flow cytometry dose series (2-fold dilutions) on HEK293 cells transiently co-transfected with human GITR and GFP; PE-conjugated anti-Fc secondary antibody
Protocol: FIG. 5. Dose response of binding of murine GITRL trimer and human GITRL trimer fusion polypeptides to GITR. Shown is a flow cytometry binding analysis of single chain murine GITRL trimer with murine IgG2a Fc domain and single chain human GITRL trimer with human IgG1 Fc domain. HEK293 cells were transiently transfected with an expression vector encoding either human or murine GITR and GFP. Transfected cells were incubated with the indicated fusion protein and analyzed by flow cytometry. Positive binding is determined by observation of cells within the inset box of the FACS plot.
A comparison of a single chain mGITRL trimer-Fc (336B10) and a single chain hGITRL trimer-Fe (336B11) to bind mouse GITR and human GITR, respectively, was undertaken. Human HEK-293 cells were transiently co-transfected with expression vectors encoding (1) a full-length mouse or human GITR (cell surface expression) and (2) GFP as a transfection marker. […] The cells were stained with a PE-conjugated anti-human or anti-mouse Fc secondary antibody and analyzed by flow cytometry.

- binding result: binds
B1: 336B11, human single chain GITRL trimer-Fc (IgG1) (Fc fusion)
chain: LQLETAKEPCMAKFGPLPSKWQMASSEPPCVNKVSDWKLEILQNGLYLIYGQVAPNANYNDVAPFEVRLYKNKDMIQTLTNKSKIQNVGGTYELHVGDTIDLIFNSEHQVLKNNTYWGIILLANPQFISLQLETAKEPCMAKFGPLPSKWQMASSEPPCVNKVSDWKLEILQNGLYLIYGQVAPNANYNDVAPFEVRLYKNKDMIQTLTNKSKIQNVGGTYELHVGDTIDLIFNSEHQVLKNNTYWGIILLANPQFISLQLETAKEPCMAKFGPLPSKWQMASSEPPCVNKVSDWKLEILQNGLYLIYGQVAPNANYNDVAPFEVRLYKNKDMIQTLTNKSKIQNVGGTYELHVGDTIDLIFNSEHQVLKNNTYWGIILLANPQFIS[human IgG1 Fc not listed]
notes: also called OMP-336B11; hGITRL trimer-Fc 336B11
